The source of these data is article PMC8606595, “Chimeric Antigen Receptor T Cells With Modified Interleukin-13 Preferentially Recognize IL13Rα2 and Suppress Malignant Glioma: A Preclinical Study” (Frontiers in Immunology, 2021).

Broadly, the Kd is the equilibrium constant for the complex coming apart. A word on the koff: it is a measure of how fast the partners let go of each other. Low readings indicate a long-lived complex, high ones a short-lived complex. By kon is commonly meant a measure of how fast the partners come together.

One assay has as its target Human IL13Rα1 (human, UniProt P78552 22-427). Briefly: SPR; Biacore T200; human IL13Rα1 (2,800 RU) or IL13Rα2 (3,100 RU) amine-coupled to CM5 chips in 10 mM sodium acetate pH 4.5; IL13-Fc proteins injected in twofold serial dilutions at constant flow (30 ml/min as printed); association 180 s, dissociation 600 s; regeneration 10 mM glycine pH 2.0; 1:1 fitting model. The note with it: both partners purified.

The target of the next assay is Human IL13Rα2 (human, UniProt Q14627 27-380). Described as above. The note with it: both partners purified.

Chain of Human IL13Rα1 (P78552 22-427): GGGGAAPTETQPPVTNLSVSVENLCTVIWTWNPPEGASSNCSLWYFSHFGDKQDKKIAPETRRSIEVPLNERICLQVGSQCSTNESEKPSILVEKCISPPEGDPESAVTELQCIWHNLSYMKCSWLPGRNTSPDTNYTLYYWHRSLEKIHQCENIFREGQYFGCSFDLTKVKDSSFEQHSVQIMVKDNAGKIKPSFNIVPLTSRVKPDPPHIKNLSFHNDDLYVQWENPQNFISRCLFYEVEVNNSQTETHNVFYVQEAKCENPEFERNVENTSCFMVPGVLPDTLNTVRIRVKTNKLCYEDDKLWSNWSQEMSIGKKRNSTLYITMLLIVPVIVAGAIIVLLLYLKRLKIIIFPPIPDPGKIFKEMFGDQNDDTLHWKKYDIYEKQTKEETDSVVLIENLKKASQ
Chain of Human IL13Rα2 (Q14627 27-380): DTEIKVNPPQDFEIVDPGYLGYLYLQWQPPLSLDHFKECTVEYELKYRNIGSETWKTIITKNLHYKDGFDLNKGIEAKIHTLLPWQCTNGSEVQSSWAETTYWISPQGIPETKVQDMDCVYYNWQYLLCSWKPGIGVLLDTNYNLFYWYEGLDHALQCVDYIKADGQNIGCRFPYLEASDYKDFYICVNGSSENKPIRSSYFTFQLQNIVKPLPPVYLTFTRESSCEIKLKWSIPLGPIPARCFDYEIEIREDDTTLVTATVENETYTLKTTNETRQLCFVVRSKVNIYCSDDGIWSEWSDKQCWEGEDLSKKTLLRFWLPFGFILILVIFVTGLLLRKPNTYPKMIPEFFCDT

B1: WT-IL13 fused with human Fc (Fc fusion)
chain: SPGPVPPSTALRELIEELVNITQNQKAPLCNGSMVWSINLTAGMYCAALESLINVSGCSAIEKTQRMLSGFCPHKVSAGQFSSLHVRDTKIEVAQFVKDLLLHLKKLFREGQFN
modifications: Fused to human Fc (carrier left out; probably dimeric through Fc). Start taken from the paper's numbering, where residue 1 = S33. / Amine-coupled to CM5 chip; extracellular domain assumed
For the molecule B1, in the assay with Human IL13Rα1, binding was put at a Kd of 19.7 nM, the koff amounted to 0.000632 s⁻¹ and the kon amounted to 32000 M⁻¹ s⁻¹. Besides, in the assay with Human IL13Rα2, the affinity, expressed as Kd, was 0.585 nM; the koff was 1.77e-05 s⁻¹; the kon came out at 30300 M⁻¹ s⁻¹.
